In brackets after ≈: the same amount, converted by molar mass. Where two headings read alike, the source gives them in different places.
Legend:
[1] = tested on: Treponema hyodysenteriae DJ70 P-3; conditions: for Lesion: mice with lesion/mice; for Curative ratios: Table 2
Protocol: Groups of seven-week old mice (CF-1) are orally infected with Treponema hyodensenteriae DJ 70 P-3 as the test pathogen, each group consisting of five mice. The mice are fasted beginning one day before the bacterial infection, and hygromycin A is administered to them in drinking water at the dosages of 60, 30, 15, 7.5, 3.7, 1.8 and 0.9 µg/ml. The bacterial infection is effected on the first and second days after fasting. The drug is administered through drinking water for six consecutive days after the first bacterial infection. On the sixth day of the administration the test animals are necropsied, and presence of Treponema hyodysenteriae in the contents of their digestive organs are determined by three days' cultivation in blood agar. As the positive control, Lincomycin (60-3.7 pg/ml) Dynamutilin, lankacidin C and olaquindox (60-7.5 µg/ml, respectively) are administered through drinking water at the concentrations indicated. As the negative control, untreated group allowed to freely drink water.

[2] = tested on: Trichophyton interdigitale KF 62; experiment: microbe, parasite or virus in culture; conditions: Trichophyton interdigitale, KF62; Medium E; read-out: MIC
Description: (§1) For reference, the minimum growth inhibition concentrations (MIC) to various bacteria of above five drugs and Lankacidin C are shown in Table 3.

[3] = tested on: Klebsiella pneumoniae KB 214 (IFO 10031); experiment: microbe, parasite or virus in culture; conditions: Klebsiella pneumoniae, IFO10031; Medium A; read-out: MIC
Description: as §1

[4] = tested on: S. aureus KB 34 (FDA 209p); experiment: microbe, parasite or virus in culture; conditions: Staphylococcus aureus, FDA209P; Medium A; read-out: MIC
Description: as §1

[5] = tested on: pasteurella hemolytica KB 281; experiment: microbe, parasite or virus in culture; conditions: Pasteurella, KB281; Medium C; read-out: MIC
Description: as §1

[6] = tested on: Staphylococcus aureus KB 210 (ATCC 6538p); experiment: microbe, parasite or virus in culture; conditions: Staphylococcus aureus, ATCC6538P; Medium A; read-out: MIC
Description: as §1

[7] = tested on: E. coli KB 198 (ML^r,LCM^s); experiment: microbe, parasite or virus in culture; conditions: Escherichia coli
Description: as §1

[8] = tested on: Micrococcus luteus KB 212 (ATCC 9341); experiment: microbe, parasite or virus in culture; conditions: Micrococcus luteus, ATCC9341; Medium A; read-out: MIC
Description: as §1

[9] = tested on: S. aureus KB 285 (MRSA); experiment: microbe, parasite or virus in culture; conditions: Staphylococcus aureus, MRSA
Description: as §1

[10] = tested on: Fusobacterium varium KB 234 (ATCC 8501); experiment: microbe, parasite or virus in culture; conditions: Fusobacterium varium, ATCC8501; Medium B; read-out: MIC
Description: as §1

[11] = tested on: A. laidlawii KB 175 (Bm-1); experiment: microbe, parasite or virus in culture; conditions: Acholeplasma laidlawii; Medium D; read-out: MIC
Description: as §1

[12] = tested on: B. cereus KB 143 (IFO 3001); experiment: microbe, parasite or virus in culture; conditions: Bacillus cereus, IFO3001; Medium A; read-out: MIC
Description: as §1

[13] = tested on: Escherichia coli KB 213 (NIHJ); experiment: microbe, parasite or virus in culture; conditions: Escherichia coli; Medium A; read-out: MIC
Description: as §1

[14] = tested on: B. megaterium KB 144 (IFO 12108); experiment: microbe, parasite or virus in culture; conditions: Priestia megaterium, IFO12108; Medium A; read-out: MIC
Description: as §1

[15] = tested on: Haemophilus pleuropneumoniae KB 282; experiment: microbe, parasite or virus in culture; conditions: Actinobacillus pleuropneumoniae, KB282; Medium C; read-out: MIC
Description: as §1

[16] = tested on: Mycoplasma gallisepticum KB 170 (KP-13); experiment: microbe, parasite or virus in culture; conditions: Mycoplasmoides gallisepticum; Medium D; read-out: MIC
Description: as §1

[17] = tested on: Treponema hyodysenteriae DJ 70 P-3; experiment: microbe, parasite or virus in culture; conditions: Brachyspira hyodysenteriae, DJ70P3; Medium F; read-out: MIC
Description: as §1

[18] = tested on: Bacillus subtilis KB 211 (ATCC 6633); experiment: microbe, parasite or virus in culture; conditions: Bacillus subtilis, ATCC6633; Medium A; read-out: MIC
Description: as §1

[19] = tested on: S. aureus KB 283 (MRSA); experiment: microbe, parasite or virus in culture; conditions: Staphylococcus aureus, MRSA
Description: as §1

[20] = tested on: Mycobacterium smegmatis KB 42 (ATCC 607); experiment: microbe, parasite or virus in culture; conditions: Mycolicibacterium smegmatis, ATCC607; Medium A; read-out: MIC
Description: as §1

[21] = tested on: E. coli KB 176 (NIHJ JC-2); experiment: microbe, parasite or virus in culture; conditions: Escherichia coli, NIHJJC2; Medium A; read-out: MIC
Description: as §1

[22] = tested on: C. difficile KB 258 (ATCC 9689); experiment: microbe, parasite or virus in culture; conditions: Clostridioides difficile, ATCC9689; Medium B; read-out: MIC
Description: as §1

[23] = tested on: Penicillium herquei KE 227 (IFO 4647); experiment: microbe, parasite or virus in culture; conditions: Penicillium herquei, IFO4647; Medium E; read-out: MIC
Description: as §1

[24] = tested on: Candida albicans KF-1; experiment: microbe, parasite or virus in culture; conditions: Candida albicans, KF1; Medium E; read-out: MIC
Description: as §1

[25] = tested on: Saccharomyces sake KF 26; experiment: microbe, parasite or virus in culture; conditions: Saccharomyces, KF26; Medium E; read-out: MIC
Description: as §1

[26] = tested on: Aspergillus niger KF-105; experiment: microbe, parasite or virus in culture; conditions: Aspergillus niger, KF105; Medium E; read-out: MIC
Description: as §1

[27] = tested on: Pseudomonas aeruginosa KB 115 (IFO 3080); experiment: microbe, parasite or virus in culture; conditions: Pseudomonas aeruginosa, IFO3080; Medium A; read-out: MIC
Description: as §1

[28] = tested on: S. aureus KB 199 (ML^r,TC^r); experiment: microbe, parasite or virus in culture; conditions: Staphylococcus aureus
Description: as §1

[29] = tested on: M. gallisepticum KB 171 (S-6); experiment: microbe, parasite or virus in culture; conditions: Mycoplasmoides gallisepticum; Medium D; read-out: MIC
Description: as §1

[30] = tested on: M. gallisepticum KB 172 (333-P); experiment: microbe, parasite or virus in culture; conditions: Mycoplasmoides gallisepticum; Medium D; read-out: MIC
Description: as §1

[31] = tested on: Treponema hyodysenteriae B 78; experiment: microbe, parasite or virus in culture; conditions: Brachyspira hyodysenteriae, B78; Medium F; read-out: MIC
Description: as §1

[32] = tested on: S. cerevisiae KF 237 (ATCC 9763); experiment: microbe, parasite or virus in culture; conditions: Saccharomyces cerevisiae, ATCC9763; Medium E; read-out: MIC
Description: as §1

[33] = tested on: Acholeplasma laidlawii KB 174 (PG-8); experiment: microbe, parasite or virus in culture; conditions: Acholeplasma laidlawii; Medium D; read-out: MIC
Description: as §1

[34] = tested on: M. pneumoniae KB-173; experiment: microbe, parasite or virus in culture; conditions: Mycoplasmoides pneumoniae, KB173; Medium D; read-out: MIC
Description: as §1

[35] = tested on: Proteus vulgaris KB 127 (IFO 3167); experiment: microbe, parasite or virus in culture; conditions: Proteus vulgaris, IFO3167; Medium A; read-out: MIC
Description: as §1

[36] = Dosage 7.5 μg/mℓ in drinking water
[37] = Dosage 15 μg/mℓ in drinking water
[38] = Dosage 30 μg/mℓ in drinking water
[39] = Dosage 60 μg/mℓ in drinking water

`C=C[C@]1(C)C[C@@H](OC(=O)CSCCN(CC)CC)[C@]2(C)[C@H](C)CC[C@]3(CCC(=O)[C@H]32)[C@@H](C)[C@@H]1O` [Dynamutilin, tiamulin] was tested, and the “Noninfective (%)” value [1, 36] was 0%, the “Presence of T. hyo. 1st day” value [1, 36] was 5/5 and the “Presence of T. hyo. 3rd day” value [1, 36] was 5/5. The Lesion [1, 36] was 3/5, the “Noninfective (%)” value [1, 37] was 20% and the “Presence of T. hyo. 1st day” value [1, 37] was 0/5. For the same molecule, the “Presence of T. hyo. 3rd day” value [1, 37] was 4/5, the Lesion [1, 37] was 0/5 and the “Noninfective (%)” value [1, 38] was 40%. For the same molecule, the “Presence of T. hyo. 1st day” value [1, 38] was 0/5, the “Presence of T. hyo. 3rd day” value [1, 38] was 3/5 and the Lesion [1, 38] was 0/5. The “Noninfective (%)” value [1, 39] was 100%, the “Presence of T. hyo. 1st day” value [1, 39] was 0/5 and the “Presence of T. hyo. 3rd day” value [1, 39] was 0/5. The Lesion [1, 39] was 0/5, the ED50 ([1]; Table 1, CF-1 mice, administration through drinking water) was 40 µg/mL (≈ 81 µM) and the Curative ratios ([1]; Dosage 7.5 μg/mℓ) was 0%. The Curative ratios ([1]; Dosage 15 μg/mℓ) was 20%, the Curative ratios ([1]; Dosage 30 μg/mℓ) was 40% and the Curative ratios ([1]; Dosage 60 μg/mℓ) was 100%. The “Fifty-percent effective dosages (ED50)” value ([1]; list after b26, CF-1 mice, administration through drinking water) was 40 µg/mL, the MIC [2] was greater than 100 µg/mL and the MIC [3] was 100 µg/mL (≈ 203 µM). For the same molecule, the MIC [4] was 3.12 µg/mL (≈ 6.32 µM), the MIC [5] was greater than 50 µg/mL and the MIC [6] was 0.78 µg/mL (≈ 1.58 µM). The MIC [7] was 6.25 µg/mL (≈ 12.7 µM), the MIC [8] was 0.78 µg/mL (≈ 1.58 µM) and the MIC [9] was 3.12 µg/mL (≈ 6.32 µM). It also gave an MIC [10] greater than 100 µg/mL, an MIC [11] of less than 0.05 µg/mL and an MIC [12] greater than 100 µg/mL. The MIC [13] was greater than 100 µg/mL, the MIC [14] was 100 µg/mL (≈ 203 µM) and the MIC [15] was 50 µg/mL (≈ 101 µM). It also gave an MIC [16] of less than 0.05 µg/mL, an MIC [17] of 0.2 µg/mL (≈ 0.405 µM) and an MIC [18] greater than 100 µg/mL. For the same molecule, the MIC [19] was 3.12 µg/mL (≈ 6.32 µM), the MIC [20] was greater than 100 µg/mL and the MIC [21] was greater than 100 µg/mL. For the same molecule, the MIC [22] was 12.5 µg/mL (≈ 25.3 µM), the MIC [23] was greater than 100 µg/mL and the MIC [24] was greater than 100 µg/mL. For the same molecule, the MIC [25] was greater than 100 µg/mL, the MIC [26] was greater than 100 µg/mL and the MIC [27] was greater than 100 µg/mL. It also gave an MIC [28] of 3.12 µg/mL (≈ 6.32 µM), an MIC [29] of less than 0.05 µg/mL and an MIC [30] of less than 0.05 µg/mL. The MIC [31] was 0.2 µg/mL (≈ 0.405 µM), the MIC [32] was greater than 100 µg/mL and the MIC [33] was less than 0.05 µg/mL. It also gave an MIC [34] of less than 0.05 µg/mL and an MIC [35] greater than 100 µg/mL.

Reference: patent EP0243717A1 (priority 1986, dated 1987)
